Laboratory results: the supplement of paper PMC3334620
The full ranking holds about 33,000 sequences; the median of “E-score (-0.5 to 0.5)” is about -0.054, and the highest 2% start at about 0.39. The list shows a part of the results.

target: Ylr278c (UniProt Q05854); experiment: PBM E-score (8-mer binding enrichment) (E-score (-0.5 to 0.5)); higher = stronger / more preferred TF binding; most listed sequences are background and not binding sites; details: protein concentration: 200 nM; construct: GST-DNA-binding domain
Outline: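 Bound GST-tagged yeast transcription factors, applied at about 100-200 nM to double-stranded universal all-10-mer Agilent arrays, were detected with fluorescent anti-GST. Scans were normalised with masliner. A modified Wilcoxon-Mann-Whitney statistic, the E-score, was assigned to each ungapped eight-base word pooled with its reverse complement by the Universal PBM Analysis Suite.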

Sequence | PBM E-score
CTCTTGAA | -0.182
AATTAGAC | -0.202
ATGACTAG | -0.27
AGGAGCGA | -0.0963
ATTGGTCA | -0.283
ATCCGGCA | 0.369
ATCATCGA | -0.0451
TACGCAAA | -0.262
ATAGAACG | 0.0158
AGTCGAGA | -0.178
TAGTGGCA | -0.163
AAAGGCAG | -0.128
CAACGATC | -0.0409
TCAACGGA | 0.311
GGTCGGCA | 0.186
ACATCTTC | 0.204
AAGAGGCT | -0.337
GATCGCGC | 0.0937
TCCCTAGA | -0.202
CGTTCATA | -0.0883
CAACCTGA | -0.248
CACGATAA | 0.065
CATGCCGC | 0.292
ACCGTTAA | -0.0737
GAGTTTGA | 0.138

Sequence | PBM E-score
ACGGAAAC | 0.278
ACCTGGCC | -0.0558
CATATACG | -0.143
ATTTATCG | 0.133
CGAGTGCC | 0.0574
AACAAGGA | -0.046
GGAGCTCC | 0.348
CCTGGGCG | -0.139
GCATACTA | 0.0868
CCTACCAG | -0.338
CCTAGCTA | -0.246
CCGGGTCA | 0.275
CAGAAAGA | -0.122
CACATTTA | -0.336
TGAAATCA | 0.00132
ACCGATGA | 0.102
ATACAACC | -0.0329
CCCATTCA | 0.086
ACTTGAAA | 0.105
AGGTTGTG | -0.229
ATGGCCGC | 0.172
CACGTAGA | -0.227
CGTTTGGC | 0.0137
GAACCCCA | 0.104
CGACTAAC | 0.065

Sequence | PBM E-score
AATTCCGC | 0.456
AAAAGCAT | -0.132
ATGACCAC | -0.129
GATTCAAC | 0.168
GTGCGGAA | 0.265
GGACCATA | 0.0486
AGGGACAC | -0.0392
GGGGCTTA | 0.0287
CAGTCTGC | -0.117
AAACACCG | 0.39
ACGATAGC | -0.0213
AGCGACGC | -0.00634
ACTTTAGA | -0.0897
ACTTCACG | -0.163
ACGCATTC | -0.00202
CACAGATA | -0.257
GACAGCGA | 0.0691
GGATCACC | 0.0883
CTTAATTC | 0.0471
GGTTATTA | 0.0611
ATCACCCA | -0.0389
GTACGACA | -0.0993
GGAATCCC | 0.201
ACCTATTG | -0.19
GCGGCTCC | 0.163

Sequence | PBM E-score
AGCACCCG | 0.11
CCGTGGCA | 0.0148
CGCTTAGC | 0.0712
ACGAATAT | -0.0546
AGCTCTAT | -0.096
AGGTAAAC | 0.0785
CGTGCAAG | -0.0568
CATATCCG | 0.289
GAATCCAC | -0.141
CAACGTGC | -0.0131
ATATAGCG | -0.0634
CTCCGTCC | 0.449
AGCACCAT | -0.317
AGCTGTCA | -0.248
AACGGCTC | 0.136
CGCCTTAG | 0.0604
CTCCACTC | -0.228
AACGCCCA | -0.0482
CAGAAACC | -0.0224
CGTTCGGA | 0.41
CACAGGGA | -0.197
CGTGCGTC | 0.2
CATTCACC | 0.195
CAAGGCTG | -0.256
GGCAGTCA | -0.052

Sequence | PBM E-score
AACGTACA | -0.094
GGTAACTA | 0.134
CGGCCGGC | 0.409
CAGGAAAG | -0.211
CCTAAAAG | -0.381
ACGCGTGA | 0.0234
ACTGTGGC | -0.32
CCTAGCCC | -0.0868
AAAGATGT | -0.153
GAGGAGCC | -0.0931
CGTTGATC | -0.0672
CACAGGCA | -0.317
AACGGAGA | 0.393
ATATCGCG | 0.226
CAATCTAA | -0.0716
AGTGTATA | -0.232
GAGTTCGC | 0.148
ACTCCAGG | 0.00347
GCTAGTAA | -0.103
CGCGTGAG | 0.0538
AGCGAGCT | -0.00642
AGGTTCAC | -0.128
AAACTACT | -0.0563
GACCGGTA | 0.0914
AACACGGG | -0.0478

Sequence | PBM E-score
GGGTCATA | -0.111
ACAAATCC | 0.171
CCGTAAGC | -0.0111
GTGGTCGA | -0.345
AGACGCAC | 0.0218
CCTCGCCA | -0.241
GGCGGCTA | 0.153
AGATCCTA | -0.281
ACCCACGC | -0.057
CACCTTGA | -0.145
TTCGAGAA | -0.193
CCACGTGG | -0.344
GACTGGCC | 0.127
CCACGTGC | -0.185
GCATCAAA | -0.126
AAGACTAC | -0.227
ATAGACTA | -0.343
CCCACTAC | -0.109
CATCTACA | -0.0614
AAGCAAGT | -0.117
ATCCAAGC | -0.11
CCGAGTCG | 0.263
TAACGGCA | 0.00445
AACCTGCG | 0.108
ACTCTTAA | -0.115

Sequence | PBM E-score
ACTCATGC | -0.193
ACACTCAC | 0.025
CGCTTTCC | 0.143
CAGCCAAA | -0.0295
AAGTGGTG | 0.00804
CATAAACA | -0.0795
ACAGGTCT | -0.106
GTGGAAAC | 0.00381
GAGTACAC | -0.0243
CTAGGTTA | 0.0674
CGTTTAGC | 0.0278
AAATTGAG | -0.067
ATTAGCGG | 0.156
AACCCTTG | -0.174
ATCAGGCG | -0.00289
ATAACCGC | 0.0605
AATGCACA | -0.0771
AGCTAATA | -0.233
CATCGGAA | 0.396
CGAATGCC | 0.179
CCTCATCG | 0.0491
CTTTAGTC | -0.0851
ATGCCGCG | 0.304
GAGGTAGA | -0.0204
CTAGACTA | -0.137

Sequence | PBM E-score
GCCAGTAC | -0.186
CTAGGGGC | -0.114
CTTAAACA | 0.00733
GACTGGAC | -0.143
ACTACTGG | -0.252
ATCGAGGG | 0.031
CTGTCAGC | -0.0314
CGCAACCC | 0.139
AATTGGCT | -0.082
CGTTTAAC | -0.174
ACTAAACT | -0.118
CGAGCTAG | 0.0909
ATGACAAA | -0.134
CCTGAGAG | -0.192
AAGCCACC | -0.238
ACCCGTTC | 0.0613
ATCGCGAC | 0.0412
AGTTCGCA | -0.00335
AACCGCAT | 0.0694
CCCAACGG | 0.128
ATCTAACC | 0.0187
AGAGGACA | -0.169
CGAAGGCG | 0.182
GTGTCATA | -0.106
GACAGGCC | -0.0794

Sequence | PBM E-score
GCGGCAGA | 0.121
CGAAAGGC | 0.0796
AAAATTGA | -0.0482
AGTTTGCC | 0.0328
CCCTACCA | -0.212
TGGTCTAA | -0.128
CTACTGTA | -0.138
CCGAGCCC | 0.183
CGCCGGTC | 0.388
ATAGTTAA | -0.0579
GATTGTGA | 0.0581
GACAGCTC | -0.0718
GTTGAGCA | -0.0774
GAAAGGAC | 0.097
CGAAGCGC | 0.197
TACTCTCA | -0.303
TAAGCGGA | 0.327
CGTTAGCC | 0.0119
CAGAACTA | -0.15
CCCAACCC | 0.051
ACGCCACT | -0.127
AGCTACCG | -0.0672
AGTGTACG | -0.0975
ATCCAATA | -0.0452
CCGTTCTC | 0.0932

Sequence | PBM E-score
AAATAGGA | -0.00548
AACTGCTG | -0.135
AGAGGGTA | -0.309
CGCAGCCG | 0.189
GATAATTA | 0.102
CACTGACG | -0.143
CGCTCAAA | -0.0906
GTCACAAA | -0.086
AATTCTCT | -0.113
CCCCGGAG | 0.48
CAGTTTGA | -0.101
GCCGCTCC | 0.234
ACACCTGT | -0.0112
CGCTGCAA | -0.109
AAGGCGCT | -0.0197
CGCTGACG | 0.0398
TATGTGCA | -0.173
TATAAACA | -0.0892
GTCTGCCA | -0.173
ACGAAACA | -0.0403
GTCTCCGA | 0.417
ACTGGCCA | -0.131
AAATTAAA | 0.073
AATCTGCC | 0.0735
GCATCAGA | -0.123

Sequence | PBM E-score
GTACCCTA | -0.192
AACGTCTT | -0.233
CTGCAAGC | -0.0895
CCAGCAGA | -0.158
CATCGGAG | 0.457
CTGATCAA | -0.101
CCAAAAGG | -0.344
GTTGATCA | -0.101
GAATAGAC | -0.113
GTGGGTGA | 0.0373
ACTGATGA | -0.301
GAAACCGA | 0.165
CCTCAATC | 0.0572
ACATAATA | -0.0789
AATCTAGG | -0.199
ACAGTGTG | -0.322
AGCGTGTA | -0.177
CAAAAGCG | 0.0203
GGAATTCA | 0.183
ACAAAACT | -0.148
CACGGGGG | 0.0162
TGACCTCA | -0.211
CTTGGCAA | -0.332
CAATGCTG | -0.108
GGAGTACA | 0.215

Sequence | PBM E-score
CAGATCTG | -0.107
AATTAAGT | 0.116
CGACAAAC | 0.0337
AATTCAGA | -0.119
CGTCGTAC | -0.125
ACTGGAGC | -0.117
GGCACGAA | -0.132
GGGACATA | 0.0665
ATCTCATG | -0.182
CCTTGTCG | -0.211
AGGGCTCC | 0.0646
AACTCAAG | -0.096
AGTTGGTA | -0.238
ACTTGGCG | -0.165
GCGACCCC | 0.156
CGAAAGCG | -0.00844
AATGGAAC | -0.032
AAGAATAG | -0.186
ACCAGAGC | 0.0145
GTCGTATA | -0.188
AAGGAGCT | -0.23
CTACATGC | -0.198
ACTTGGAA | -0.162
ATCTGGCA | -0.136
CCAGACGA | -0.149

Sequence | PBM E-score
ACGGCAAG | -0.0614
AATGCCAC | -0.107
AACAGACG | -0.0792
AAACTTCG | -0.0275
GCAAAGAC | 0.00158
ACATCGGC | 0.233
GCATTCAC | 0.193
ACAATAGT | -0.073
AAGAATAA | -0.102
GGTCGAAA | -0.0548
GACCCTAC | -0.0173
CGCGGTAA | 0.26
AGGGCCTC | -0.149
AAGGCTGT | -0.104
GGTACTCA | -0.0728
ATAGCGAT | -0.201
CCCTTCAC | -0.188
GGTTCGTA | -0.0544
GCACCATA | -0.186
CTGCCGTA | -0.117
TATCACAA | -0.153
CTTTTGTC | 0.11
CATTTTAG | 0.135
CGCTCCAC | -0.00347
ACAGCCTC | -0.112

Sequence | PBM E-score
TCTTTACA | -0.0334
TAGAGCAA | -0.333
ATTCGAAG | -0.0406
AGCTAAAA | 0.0127
ATGGCATG | -0.026
TGATCGAA | -0.163
GTCGGCGA | 0.243
CAGCTCAG | -0.162
AATGGTGT | -0.119
ATATTTCC | 0.33
CCTGTCCC | -0.128
TATGCCGA | 0.276
CGTGTCCA | -0.122
AGAACCTG | -0.28
ATGTCGTA | -0.292
GATTAAAC | 0.0975
TAACGATA | -0.124
AGGGCGGA | 0.385
ACCAAGTG | -0.243
